Some of the results follow. The energies were worked out here from pooled read counts, against the library average; single values are noisy.
The sequences below were run against T1, Pho4 (S. cerevisiae) (UniProt P07270) (assay: relative binding free energy (BET-seq); higher = weaker binding). Details: reference: library average.
T1 sequence: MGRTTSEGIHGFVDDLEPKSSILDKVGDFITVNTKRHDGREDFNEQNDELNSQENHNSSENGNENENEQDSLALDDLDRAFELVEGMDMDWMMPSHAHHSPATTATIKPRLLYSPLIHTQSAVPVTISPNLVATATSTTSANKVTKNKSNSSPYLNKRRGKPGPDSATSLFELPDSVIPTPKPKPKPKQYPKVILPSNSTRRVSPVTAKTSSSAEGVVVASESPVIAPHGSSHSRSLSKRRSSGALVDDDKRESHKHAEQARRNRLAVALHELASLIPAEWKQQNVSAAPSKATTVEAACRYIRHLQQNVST

Sequence	relative binding free energy [kcal/mol]
CTAGCCACGTGTGGTG	-0.02
GACTACACGTGTGGGG	0.34
CGGTGCACGTGGGATC	-0.08
TAGGCCACGTGGAGTG	0
ATTTTCACGTGTTGAA	0.34
GGGGACACGTGGAGGC	0.03
GATTTCACGTGTATGT	0.28
TTTAACACGTGTGTGC	-0.05
AATTCCACGTGAGTGT	0.17
AGGTACACGTGGGGTG	-0.1
TTTTTCACGTGTGATA	0.35
GATAGCACGTGTGTGC	0.03
ATGCTCACGTGGTTAG	0.18
TCAAGCACGTGTTTGT	-0.07
TACGGCACGTGTGAGT	-0.02
AGGTACACGTGTTTAA	-0.07
GAATGCACGTGGGATG	0.01
GTTGTCACGTGCTAGA	0.03
TTGCTCACGTGTCTGT	0.29
GGAAACACGTGAGAGG	0.21
TTATACACGTGAATTG	0.19
TCTCACACGTGTTGGT	0.1
TGCTTCACGTGAGCTG	0.42

Sequence	relative binding free energy [kcal/mol]
TAGGTCACGTGGGGTA	-0.1
GCAGTCACGTGCTGGG	0
AAAGGCACGTGGTCTG	-0.2
GACTTCACGTGGTGGA	0.45
TGTTACACGTGAAGCT	0.33
GTAGTCACGTGTGGAC	0.34
TGGAGCACGTGTTGAC	0.07
TTATTCACGTGTATAG	0.24
GACGGCACGTGTGGAT	0.1
TGTTGCACGTGTATTC	0.09
GGTGTCACGTGGATTA	0.28
TAATGCACGTGTTTGG	-0.08
GAGGACACGTGGGTCT	-0.04
GTCTGCACGTGCGGGA	-0.1
GCAGTCACGTGGCGGG	-0.01
AAGGGCACGTGCGGGG	-0.18
GTATGCACGTGGCGTT	0.01
CTGAGCACGTGAGCGG	0.21
CTTATCACGTGATGCG	0.32
GTGGACACGTGGCTGG	-0.1
TGAGGCACGTGAGCTT	0.21
AGTATCACGTGTGTAG	0.01
TGAAACACGTGATTTA	0.19

Sequence	relative binding free energy [kcal/mol]
ATGGCCACGTGTTTAT	-0.09
TATGTCACGTGTGTGC	0
AGGAGCACGTGGAGTG	-0.21
TTTGTCACGTGATTCT	0.29
TGCTGCACGTGTTTCG	0.02
TATGTCACGTGGTAAA	0.08
GGGGCCACGTGGGACT	-0.06
TGAATCACGTGGTGTA	0.19
TTGCGCACGTGAGATT	0.26
ATTATCACGTGTGGGG	0.15
TTTTTCACGTGGCGGG	0.2
TTGTGCACGTGGCTTG	-0.11
GGAGTCACGTGGATTA	-0.03
TGTTTCACGTGAAGTG	0.42
GTATGCACGTGTTTAT	-0.02
TAAACCACGTGTGTTG	0.04
TGATGCACGTGTCAGT	0.04
GATCGCACGTGGATGG	-0.02
AGATGCACGTGGCTGG	-0.07
GTTAGCACGTGGCTGT	-0.06
TTAGGCACGTGTGATC	-0.08
GGTTTCACGTGATTGG	0.38
TTAGGCACGTGTAGAA	0.06

Sequence	relative binding free energy [kcal/mol]
TGTAACACGTGAGGTG	0.17
AGCCGCACGTGAGGTG	0.19
GCGGTCACGTGTTGAT	0.24
ATGAGCACGTGGTGTT	-0.02
TCGGGCACGTGGATGG	0.02
TTCGACACGTGGGTTC	0.13
AGTACCACGTGGTGTG	-0.13
TGAGGCACGTGTTGTC	-0.08
TAGCGCACGTGGCTGT	-0.1
CAGGACACGTGTGGGT	0.05
GTATTCACGTGTGAGT	0.29
GGCGCCACGTGAGGGT	0.05
TGCACCACGTGTTGGT	-0.04
TATTGCACGTGTAAGG	0.04
TCTTTCACGTGTATAG	0.22
GTGTACACGTGGAAGT	0.04
TTTTACACGTGAACGG	0.34
GGTACCACGTGCGGGT	-0.16
AGGTTCACGTGTTGTC	0.21
TCTTCCACGTGTGTGG	0.04
GTTGTCACGTGAGTGT	0.33
ATCATCACGTGAAGGT	0.33
GGCGTCACGTGACGTG	0.17

Sequence	relative binding free energy [kcal/mol]
GAGGACACGTGGGTTA	-0.05
GGAAACACGTGTAGTG	-0.02
TTAGGCACGTGTAGCT	0.02
TATGGCACGTGTGTGT	-0.08
TAAGTCACGTGGCTAG	0.01
TGTAGCACGTGTTATG	0.01
GCGTGCACGTGGTGCT	-0.17
GTTATCACGTGTAGCT	0.21
TTGAGCACGTGTGAAG	0.07
AATTTCACGTGGAGTA	0.17
GATCGCACGTGTGGTG	0.11
CTTTACACGTGGGCTG	0.02
TCGGGCACGTGGGAGA	-0.23
ATTGTCACGTGAATCT	0.24
CTGTCCACGTGTGTGT	0.04
TACGTCACGTGGTAAG	0.01
CCTGTCACGTGTGGGT	0.06
TTTGTCACGTGCTTGT	0.13
AAGGACACGTGTTTAA	0.13
TTGAACACGTGGCTTG	0.01
CTGATCACGTGGAGTT	0.15
GCGTACACGTGGTGTT	-0.05
TTGATCACGTGTTATA	0.07

— the BET-seq Pho4 binding data (Le et al. 2018)
